We go through 26 molecules from the antibiotic and cytotoxicity screens of Wong et al. (2023).

One assay deals with HSkMC. Description: cytotoxicity call (relative viability < 0.9). Particulars: 10 µM.
The subject of the next assay is HepG2. Nature of the assay: cytotoxicity call (relative viability < 0.9). The following applies: 10 µM.
The next assay has as its system S. aureus RN4220. Description: growth inhibition call (relative growth <= 0.2). Particulars: 50 µM.

This is one part of the list.

As for `C=CCOC(=O)[C@@H]1[C@H]2C(=O)O[C@H](c3ccccc3)[C@H](c3ccccc3)N2[C@H](c2ccc(OCCOC(=O)[C@H]3C[C@H]4C(=O)N[C@@H](CCCCN(C)C)C(=O)N4[C@H]3c3cccc(OCCO)c3)cc2)[C@@]12C(=O)Nc1ccc(I)cc12`, the cytotoxicity call in the assay with HSkMC and in the assay on HepG2 was “inactive” in each case. The growth inhibition call in the assay on S. aureus RN4220 is “inactive”.

As for `CNC[C@H]1OCCCC[C@@H](C)Oc2ccc(NC(=O)Nc3ccc(C(F)(F)F)cc3)cc2C(=O)N([C@H](C)CO)C[C@@H]1C`, the cytotoxicity call with HSkMC and in the assay on HepG2 was “inactive” each time. Moreover, in the assay on S. aureus RN4220, the growth inhibition call was “inactive”.

Consider `C[C@H]1CN([C@@H](C)CO)C(=O)CCCn2nncc2CO[C@H]1CN(C)S(=O)(=O)c1ccc2c(c1)OCCCO2`, for which the cytotoxicity call with HSkMC and in the assay with HepG2 was “inactive” throughout. In the assay with S. aureus RN4220, the growth inhibition call is “inactive”.

Turning to `C[C@H]1CN([C@@H](C)CO)C(=O)c2cccc(NC(=O)C3CCOCC3)c2O[C@H]1CN(C)S(=O)(=O)c1cn(C)cn1`, the cytotoxicity call in the assay with HSkMC and with HepG2 was “inactive” each time. The growth inhibition call with S. aureus RN4220 is “inactive”.

Consider `C[C@H]1CN([C@@H](C)CO)C(=O)Cc2cc(NC(=O)Nc3ccc(F)cc3)ccc2O[C@H]1CN(C)Cc1ccc(-c2ccccc2)cc1`, for which the cytotoxicity call in the assay with HSkMC and in the assay with HepG2 was “active” throughout. Moreover, the growth inhibition call in the assay on S. aureus RN4220 is “inactive”.

As to `Cc1noc(C)c1NC(=O)Nc1ccc2c(c1)C(=O)N([C@@H](C)CO)C[C@@H](C)[C@@H](CN(C)S(=O)(=O)c1ccc(Cl)cc1)OCCCC[C@@H](C)O2`, the cytotoxicity call with HSkMC and in the assay with HepG2 was “inactive” each time. For the same molecule, in the assay with S. aureus RN4220, the growth inhibition call was “inactive”.

Consider `COCC#Cc1ccc2c(c1)O[C@@H](CN(C)S(=O)(=O)c1ccc(C)cc1)[C@@H](C)CN([C@H](C)CO)S2(=O)=O`, for which the cytotoxicity call with HSkMC and with HepG2 was “inactive” in each case. Moreover, the growth inhibition call with S. aureus RN4220 was “inactive”.

For the molecule `C[C@@H]1CN([C@@H](C)CO)C(=O)CCCn2cc(nn2)CO[C@H]1CN(C)C(=O)Nc1cccc(Oc2ccccn2)c1`, the cytotoxicity call in the assay with HSkMC and in the assay on HepG2 was “inactive” each time. For the same molecule, the growth inhibition call with S. aureus RN4220 was “inactive”.

On to `CN1CCCN=C1C=Cc1cccc(O)c1.O=C(O)c1cc2ccccc2c(Cc2c(O)c(C(=O)O)cc3ccccc23)c1O`, for which the cytotoxicity call in the assay on HSkMC and in the assay on HepG2 was “inactive” throughout. Besides, the growth inhibition call in the assay with S. aureus RN4220 is “inactive”.

For the molecule `C[C@@H]1CCCCO[C@H](CN(C)Cc2ccccc2)[C@H](C)CN([C@@H](C)CO)C(=O)c2cc(NC(=O)Nc3cccc4ccccc34)ccc2O1`, the cytotoxicity call with HSkMC and in the assay on HepG2 was “active” each time. For the same molecule, in the assay on S. aureus RN4220, the growth inhibition call is “inactive”.

Turning to `C[C@@H]1CCCCO[C@@H](CN(C)C(=O)Cc2ccccc2)[C@H](C)CN([C@@H](C)CO)C(=O)c2cc(NC(=O)C3CCCCC3)ccc2O1`, the cytotoxicity call with HSkMC and in the assay with HepG2 was “inactive” throughout. Besides, the growth inhibition call in the assay on S. aureus RN4220 was “inactive”.

For `C[C@H]1CN([C@@H](C)CO)S(=O)(=O)c2ccc(/C=C/c3ccccc3)cc2O[C@@H]1CN(C)C(=O)CN1CCOCC1`, the cytotoxicity call in the assay on HSkMC and in the assay with HepG2 was “inactive” throughout. The growth inhibition call in the assay on S. aureus RN4220 was “inactive”.

In the case of `CO[C@H]1CN(C)C(=O)c2ccc(NC(=O)NC(C)C)cc2OC[C@@H](C)N(Cc2ccc(-c3ccccn3)cc2)C[C@H]1C`, the cytotoxicity call in the assay with HSkMC and with HepG2 was “inactive” in each case. In addition, in the assay on S. aureus RN4220, the growth inhibition call is “inactive”.

As to `OCc1cn(-c2ccccc2)nn1`, the cytotoxicity call with HSkMC and in the assay on HepG2 was “inactive” in each case. Besides, the growth inhibition call in the assay on S. aureus RN4220 is “inactive”.

On to `C[C@@H]1CCCCO[C@H](CN(C)C(=O)Nc2cccc3ccccc23)[C@@H](C)CN([C@H](C)CO)C(=O)c2cc(NS(=O)(=O)c3ccccc3)ccc2O1`, for which the cytotoxicity call in the assay with HSkMC and with HepG2 was “inactive” in each case. Also, in the assay on S. aureus RN4220, the growth inhibition call was “inactive”.

Consider `O=C(O)C=C(O)C(=O)O`, for which the cytotoxicity call with HSkMC and in the assay with HepG2 was “inactive” each time. In addition, the growth inhibition call with S. aureus RN4220 is “inactive”.

In the case of `CNC1C(O)C(OC2C(N)CC(N)C(OC3OC(CN)=CCC3N)C2O)OCC1(C)O.O=S(=O)(O)O` (stereo not drawn), the cytotoxicity call in the assay on HSkMC and with HepG2 was “inactive” each time. The growth inhibition call in the assay with S. aureus RN4220 is “active”.

As for `C[C@@H]1CN([C@H](C)CO)C(=O)c2c(c3ccccc3n2C)-c2ccccc2CO[C@H]1CN(C)C(=O)Nc1ccc(-c2ccccc2)cc1`, in the assay on HSkMC, the cytotoxicity call was “inactive”. The cytotoxicity call with HepG2 was “active”. Also, the growth inhibition call in the assay with S. aureus RN4220 was “inactive”.

Take `N[C@H]1CCCN(C(=O)c2cccs2)C1`: the cytotoxicity call with HSkMC and in the assay on HepG2 was “inactive” in each case. The growth inhibition call in the assay on S. aureus RN4220 is “inactive”.

For `C[C@@H]1CN([C@@H](C)CO)C(=O)c2cc(-c3ccc(C#N)cc3)cnc2O[C@H]1CN(C)C(=O)Nc1ccc(C(F)(F)F)cc1`, the cytotoxicity call with HSkMC and in the assay on HepG2 was “inactive” each time. In addition, in the assay on S. aureus RN4220, the growth inhibition call is “inactive”.

With `O=C(CCCCCNC(=O)OCCCCO[C@@H]1C[C@H](c2ccc(C(F)(F)F)cc2)C=C(C(=O)N2CCN(Cc3ccccc3)CC2)O1)NO`, the cytotoxicity call in the assay on HSkMC and in the assay with HepG2 was “inactive” in each case. In addition, in the assay on S. aureus RN4220, the growth inhibition call is “inactive”.

On to `COc1ccc(NC(=O)O[C@H]2[C@H](OC(=O)Nc3ccccc3-c3ccccc3)[C@@H](OC(=O)Nc3ccccc3-c3ccccc3)[C@@H](OC)O[C@@H]2COC(=O)NCCCCCC(=O)NO)cc1`, for which the cytotoxicity call in the assay on HSkMC and in the assay with HepG2 was “inactive” throughout. In addition, in the assay on S. aureus RN4220, the growth inhibition call is “inactive”.

In the case of `COc1ccc(S(=O)(=O)N(C)C[C@@H]2OCCCC[C@H](C)Oc3ccc(NC(=O)Nc4ccc(C(F)(F)F)cc4)cc3C(=O)N([C@H](C)CO)C[C@@H]2C)cc1`, the cytotoxicity call with HSkMC and with HepG2 was “inactive” each time. For the same molecule, in the assay with S. aureus RN4220, the growth inhibition call was “inactive”.

For the molecule `Cc1ccc(S(=O)(=O)Nc2ccc3c(c2)CC(=O)N([C@H](C)CO)C[C@@H](C)[C@@H](CN(C)S(=O)(=O)c2c(C)noc2C)O3)cc1`, the cytotoxicity call in the assay with HSkMC and in the assay with HepG2 was “inactive” in each case. In addition, in the assay with S. aureus RN4220, the growth inhibition call is “inactive”.

For `COCC#Cc1cnc2c(c1)C(=O)N([C@H](C)CO)C[C@H](C)[C@@H](CN(C)C(=O)Nc1ccccc1OC)O2`, the cytotoxicity call with HSkMC and with HepG2 was “inactive” in each case. Moreover, the growth inhibition call in the assay with S. aureus RN4220 was “inactive”.

Consider `CC12CC(OC1=O)C1(C)CCC3(C)C(=CCC4C5(C)CCC(O)C(C)(C)C5CCC43C)C1C2` (stereo not drawn), for which the cytotoxicity call in the assay on HSkMC (human skeletal muscle cells) and in the assay on HepG2 was “inactive” in each case. The growth inhibition call in the assay with S. aureus RN4220 was “inactive”.
